# From the supplement of paper PMC8728848
# The list shows a part of the results.
# How the values were obtained:
# Assay in all cases: glycan array binding signal (z-score within array); higher = stronger binding
# Conditions in all cases: glycan notation: IUPAC condensed, linker removed
# [1] = target: GlcNAc(b1-2)Gal(b1-3)GalNAc
# Method in brief: (§1)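 Glycan array data came from 3228 arrays in the Consortium for Functional Glycomics database, and only arrays with an available protein sequence were kept. Glycan names were put into IUPAC-condensed notation, and columns mapping to the same glycan were averaged. The binding signal is a within-array Z-score, averaged across arrays of one protein sequence run at different concentrations or buffers and across linkers. A negative Z-score can be read as non-binding.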
# [2] = target: GlcNAc(b1-2)Man(a1-3)[GlcNAc(b1-2)Man(a1-6)]Man(b1-4)GlcNAc(b1-4)GlcNAc
# Method in brief: as §1
# [3] = target: GlcNAc(b1-2)Man(a1-3)[GlcNAc(b1-2)Man(a1-6)]Man(b1-4)GlcNAc(b1-4)[Fuc(a1-6)]GlcNAc
# Method in brief: as §1
# [4] = target: GlcNAc(b1-2)Man(a1-3)[GlcNAc(b1-4)][GlcNAc(b1-2)Man(a1-6)]Man(b1-4)GlcNAc(b1-4)GlcNAc
# Method in brief: as §1
# [5] = target: GlcNAc(b1-2)Man(a1-3)[GlcNAc(b1-4)][GlcNAc(b1-2)Man(a1-6)]Man(b1-4)GlcNAc(b1-4)[Fuc(a1-6)]GlcNAc
# Method in brief: as §1
# [6] = target: GlcNAc(b1-2)[GlcNAc(b1-4)]Man(a1-3)[GlcNAc(b1-2)Man(a1-6)]Man(b1-4)GlcNAc(b1-4)GlcNAc
# Method in brief: as §1
# [7] = target: GlcNAc(b1-2)[GlcNAc(b1-4)]Man(a1-3)[GlcNAc(b1-4)][GlcNAc(b1-2)Man(a1-6)]Man(b1-4)GlcNAc(b1-4)GlcNAc
# Method in brief: as §1
# [8] = target: GlcNAc(b1-2)[GlcNAc(b1-4)]Man(a1-3)[GlcNAc(b1-4)][GlcNAc(b1-2)[GlcNAc(b1-6)]Man(a1-6)]Man(b1-4)GlcNAc(b1-4)GlcNAc
# Method in brief: as §1
# [9] = target: GlcNAc(b1-2)[GlcNAc(b1-4)]Man(a1-3)[GlcNAc(b1-4)][GlcNAc(b1-2)[GlcNAc(b1-6)]Man(a1-6)]Man(b1-4)GlcNAc(b1-4)[Fuc(a1-6)]GlcNAc
# Method in brief: as §1
# [10] = target: GlcNAc(b1-2)[GlcNAc(b1-6)]Man(a1-6)[GlcNAc(b1-2)Man(a1-3)]Man(b1-4)GlcNAc(b1-4)GlcNAc
# Method in brief: as §1
# [11] = target: GlcNAc(b1-2)[GlcNAc(b1-6)]Man(a1-6)[GlcNAc(b1-2)Man(a1-3)]Man(b1-4)GlcNAc(b1-4)[Fuc(a1-6)]GlcNAc
# Method in brief: as §1
# [12] = target: GlcNAc(b1-2)[GlcNAc(b1-6)]Man(a1-6)[GlcNAc(b1-4)][GlcNAc(b1-2)Man(a1-3)]Man(b1-4)GlcNAc(b1-4)GlcNAc
# Method in brief: as §1
# GlcNAc(b1-3)Fuc = target: GlcNAc(b1-3)Fuc
# Method in brief: as §1
# GlcNAc(b1-3)Gal = target: GlcNAc(b1-3)Gal
# Method in brief: as §1
# [13] = target: GlcNAc(b1-3)Gal(b1-3)GalNAc
# Method in brief: as §1
# GlcNAc(b1-3)Gal(b1-4)Glc = target: GlcNAc(b1-3)Gal(b1-4)Glc
# Method in brief: as §1
# [14] = target: GlcNAc(b1-3)Gal(b1-4)GlcNAc
# Method in brief: as §1
# [15] = target: GlcNAc(b1-3)Gal(b1-4)GlcNAc(b1-2)Man(a1-3)[GlcNAc(b1-3)Gal(b1-4)GlcNAc(b1-2)Man(a1-6)]Man(b1-4)GlcNAc(b1-4)GlcNAc
# Method in brief: as §1
# [16] = target: GlcNAc(b1-3)Gal(b1-4)GlcNAc(b1-2)Man(a1-3)[GlcNAc(b1-3)Gal(b1-4)GlcNAc(b1-2)Man(a1-6)]Man(b1-4)GlcNAc(b1-4)[Fuc(a1-6)]GlcNAc
# Method in brief: as §1
# [17] = target: GlcNAc(b1-3)Gal(b1-4)GlcNAc(b1-2)[GlcNAc(b1-3)Gal(b1-4)GlcNAc(b1-6)]Man(a1-6)[GlcNAc(b1-3)Gal(b1-4)GlcNAc(b1-2)Man(a1-3)]Man(b1-4)GlcNAc(b1-4)GlcNAc
# Method in brief: as §1
# [18] = target: GlcNAc(b1-3)Gal(b1-4)GlcNAc(b1-3)Gal(b1-4)GlcNAc
# Method in brief: as §1
# [19] = target: GlcNAc(b1-3)Gal(b1-4)GlcNAc(b1-3)Gal(b1-4)GlcNAc(b1-2)Man(a1-3)[GlcNAc(b1-3)Gal(b1-4)GlcNAc(b1-3)Gal(b1-4)GlcNAc(b1-2)Man(a1-6)]Man(b1-4)GlcNAc(b1-4)GlcNAc
# Method in brief: as §1
# [20] = target: GlcNAc(b1-3)Gal(b1-4)GlcNAc(b1-3)Gal(b1-4)GlcNAc(b1-2)Man(a1-3)[GlcNAc(b1-3)Gal(b1-4)GlcNAc(b1-3)Gal(b1-4)GlcNAc(b1-2)Man(a1-6)]Man(b1-4)GlcNAc(b1-4)[Fuc(a1-6)]GlcNAc
# Method in brief: as §1
# [21] = target: GlcNAc(b1-3)Gal(b1-4)GlcNAc(b1-3)Gal(b1-4)GlcNAc(b1-2)[GlcNAc(b1-3)Gal(b1-4)GlcNAc(b1-3)Gal(b1-4)GlcNAc(b1-6)]Man(a1-6)[GlcNAc(b1-3)Gal(b1-4)GlcNAc(b1-3)Gal(b1-4)GlcNAc(b1-2)Man(a1-3)]Man(b1-4)GlcNAc(b1-4)[Fuc(a1-6)]GlcNAc
# Method in brief: as §1
# [22] = target: GlcNAc(b1-3)Gal(b1-4)GlcNAc(b1-3)Gal(b1-4)GlcNAc(b1-3)Gal(b1-4)GlcNAc(b1-2)Man(a1-3)[GlcNAc(b1-3)Gal(b1-4)GlcNAc(b1-3)Gal(b1-4)GlcNAc(b1-3)Gal(b1-4)GlcNAc(b1-2)Man(a1-6)]Man(b1-4)GlcNAc(b1-4)GlcNAc
# Method in brief: as §1
# [23] = target: GlcNAc(b1-3)Gal(b1-4)GlcNAc(b1-3)Gal(b1-4)GlcNAc(b1-3)Gal(b1-4)GlcNAc(b1-2)Man(a1-3)[GlcNAc(b1-3)Gal(b1-4)GlcNAc(b1-3)Gal(b1-4)GlcNAc(b1-3)Gal(b1-4)GlcNAc(b1-2)Man(a1-6)]Man(b1-4)GlcNAc(b1-4)[Fuc(a1-6)]GlcNAc
# Method in brief: as §1
# [24] = target: GlcNAc(b1-3)Gal(b1-4)GlcNAc(b1-3)Gal(b1-4)GlcNAc(b1-3)Gal(b1-4)GlcNAc(b1-2)[GlcNAc(b1-3)Gal(b1-4)GlcNAc(b1-3)Gal(b1-4)GlcNAc(b1-3)Gal(b1-4)GlcNAc(b1-6)]Man(a1-6)[GlcNAc(b1-3)Gal(b1-4)GlcNAc(b1-3)Gal(b1-4)GlcNAc(b1-3)Gal(b1-4)GlcNAc(b1-2)Man(a1-3)]Man(b1-4)GlcNAc(b1-4)[Fuc(a1-6)]GlcNAc
# Method in brief: as §1
# [25] = target: GlcNAc(b1-3)Gal(b1-4)GlcNAc(b1-3)Gal(b1-4)GlcNAc(b1-3)Gal(b1-4)GlcNAc(b1-3)Gal(b1-4)GlcNAc(b1-2)Man(a1-3)[GlcNAc(b1-3)Gal(b1-4)GlcNAc(b1-3)Gal(b1-4)GlcNAc(b1-3)Gal(b1-4)GlcNAc(b1-3)Gal(b1-4)GlcNAc(b1-2)Man(a1-6)]Man(b1-4)GlcNAc(b1-4)GlcNAc
# Method in brief: as §1
# [26] = target: GlcNAc(b1-3)Gal(b1-4)GlcNAc(b1-3)Gal(b1-4)GlcNAc(b1-3)Gal(b1-4)GlcNAc(b1-3)Gal(b1-4)GlcNAc(b1-2)Man(a1-3)[GlcNAc(b1-3)Gal(b1-4)GlcNAc(b1-3)Gal(b1-4)GlcNAc(b1-3)Gal(b1-4)GlcNAc(b1-3)Gal(b1-4)GlcNAc(b1-2)Man(a1-6)]Man(b1-4)GlcNAc(b1-4)[Fuc(a1-6)]GlcNAc
# Method in brief: as §1
# [27] = target: GlcNAc(b1-3)Gal(b1-4)GlcNAc(b1-3)Gal(b1-4)GlcNAc(b1-3)Gal(b1-4)GlcNAc(b1-3)Gal(b1-4)GlcNAc(b1-2)[GlcNAc(b1-3)Gal(b1-4)GlcNAc(b1-3)Gal(b1-4)GlcNAc(b1-3)Gal(b1-4)GlcNAc(b1-3)Gal(b1-4)GlcNAc(b1-6)]Man(a1-6)[GlcNAc(b1-3)Gal(b1-4)GlcNAc(b1-3)Gal(b1-4)GlcNAc(b1-3)Gal(b1-4)GlcNAc(b1-3)Gal(b1-4)GlcNAc(b1-2)Man(a1-3)]Man(b1-4)GlcNAc(b1-4)[Fuc(a1-6)]GlcNAc
# Method in brief: as §1
binder,measurement,setting,value
SialidaseA (Arthrobacter ureafaciens) (protein) MRSNSTSAPSLVRRAATGVLTCAVSIGLLAGLGLPAQAAPTPPNSPTLPPGSFSETNLAADRTAANFFYRIPALTYLGNDVVLAAWDGRPGSAADAPNPNSIVQRRSTDGGKTWGPVQVIAAGHVADASGPRYGYSDPSYIYDAEANKVFAFFVYSKDQGFGGSQFGNDDADRNVISSAVIESSDAGVTWSQPRLITSVTKPGTSKTNPAAGDVRSNFASSGEGIQLKYGPHKGRLIQQYAGDVRQADGSNKIQAYSVYSDDHGVTWHKGANVGDRMDENKTVELSDGRVLLNSRDNANRGYRKVAVSTDGGATYGPVSQDTELPDPANNGAIARMFPNAAQGSADAKKLIFTNANSKTGRENVSARVSCDDGETWPGVRTIRSGFSAYSTVTRLADGKFGVLYEGNYTDNMPFATFDDAWLNYVCAPLAVPAVNIAPSATQEVPVTVTNQEATTLSGATATVYTPSGWSATTVPVPDVAPGASVTVTVALTAPADASGPRSLNAAFTTADGRVSQFTFTATTPVAPQVGLTITGSAPARDVAANPYQAGDVLGYTLNVKSTANVAANSVPLTGTFDSGFLPPAAPNCRYNNLAAGASYNCTTAKHTITAADMERGYFVPEATFSITSTTTPSLTKTVQFTGAAVALRDGLISADISGARTDVGRDLATRPYAAGELVPYAFTVKNTSPFVEQVVPTAGNFSPFLPAGAGNCRYLSLPAGQSYECATPRHAVTAEEVEQGFFVPDTTWEVSAAGQSTRTYRINGGEVDLLVRDAALSATVVAEWKDADGDRFASAGDPVTFTYTVGNAGNVALTGLEAPDAGISLPFLAPGDTATATREHVLTAADVAGGSLAASAFEATARNGSKEVTATAEGQPLELKVQPAQPSKEPELTVQDLEDQTPPFDLGTAFKYRTGQKVSLAGLEYGQWYYVYLNKTGYRLGWMFPTTGDTVEFILPPEVRNGRDDVVVLDKDGRRVSFDRLQVTPKGEKI,glycan array binding signal (z-score),[1],0.347
same,glycan array binding signal (z-score),[2],-0.338
same,glycan array binding signal (z-score),[3],-0.251
same,glycan array binding signal (z-score),[4],-0.689
same,glycan array binding signal (z-score),[5],-0.89
same,glycan array binding signal (z-score),[6],-0.749
same,glycan array binding signal (z-score),[7],-0.864
same,glycan array binding signal (z-score),[8],-0.824
same,glycan array binding signal (z-score),[9],-0.681
same,glycan array binding signal (z-score),[10],-0.551
same,glycan array binding signal (z-score),[11],-0.346
same,glycan array binding signal (z-score),[12],-0.712
same,glycan array binding signal (z-score),GlcNAc(b1-3)Fuc,-0.374
same,glycan array binding signal (z-score),GlcNAc(b1-3)Gal,-0.876
same,glycan array binding signal (z-score),[13],-0.683
same,glycan array binding signal (z-score),GlcNAc(b1-3)Gal(b1-4)Glc,-0.574
same,glycan array binding signal (z-score),[14],-0.874
same,glycan array binding signal (z-score),[15],-0.172
same,glycan array binding signal (z-score),[16],0
same,glycan array binding signal (z-score),[17],0.551
same,glycan array binding signal (z-score),[18],-0.891
same,glycan array binding signal (z-score),[19],0.374
same,glycan array binding signal (z-score),[20],-0.241
same,glycan array binding signal (z-score),[21],0.529
same,glycan array binding signal (z-score),[22],-0.081
same,glycan array binding signal (z-score),[23],0.168
same,glycan array binding signal (z-score),[24],0.616
same,glycan array binding signal (z-score),[25],0.085
same,glycan array binding signal (z-score),[26],0.035
same,glycan array binding signal (z-score),[27],0.133
